From the supplement of paper PMC3334620
In all, about 33,000 sequences were measured (“E-score (-0.5 to 0.5)”: median about -0.016, highest 2% from about 0.32 on). The list shows a part of the results.

target: T1, Stp1 (UniProt B3LFK1); assay: PBM E-score (8-mer binding enrichment) (E-score (-0.5 to 0.5)); higher = stronger / more preferred TF binding; most listed sequences are background and not binding sites; conditions: protein concentration: 200 nM; construct: GST-full length
T1 sequence: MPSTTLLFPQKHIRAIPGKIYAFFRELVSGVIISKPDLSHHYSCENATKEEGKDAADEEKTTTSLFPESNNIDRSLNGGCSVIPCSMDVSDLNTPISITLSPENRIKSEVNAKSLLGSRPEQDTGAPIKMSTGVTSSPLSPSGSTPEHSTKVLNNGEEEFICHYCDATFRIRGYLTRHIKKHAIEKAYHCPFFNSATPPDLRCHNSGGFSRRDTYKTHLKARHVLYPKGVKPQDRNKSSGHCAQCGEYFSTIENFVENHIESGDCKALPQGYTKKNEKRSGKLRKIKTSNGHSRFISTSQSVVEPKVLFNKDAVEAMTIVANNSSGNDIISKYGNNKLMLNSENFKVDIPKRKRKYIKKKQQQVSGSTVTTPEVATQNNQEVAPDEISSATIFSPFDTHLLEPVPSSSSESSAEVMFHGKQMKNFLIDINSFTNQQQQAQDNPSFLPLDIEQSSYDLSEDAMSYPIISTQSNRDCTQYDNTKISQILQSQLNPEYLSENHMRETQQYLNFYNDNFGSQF
How it was run: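 Bound GST-tagged yeast transcription factors, applied at about 100-200 nM to double-stranded universal all-10-mer Agilent arrays, were detected with fluorescent anti-GST. Scans were normalised with masliner. A modified Wilcoxon-Mann-Whitney statistic, the E-score, was assigned to each ungapped eight-base word pooled with its reverse complement by the Universal PBM Analysis Suite.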

Sequence	PBM E-score
AATGTCTA	0.0557
TTGCAAAA	0.128
GGAGATCC	-0.143
GCTTCCCC	-0.261
ATCAACCC	-0.0253
AGGCGCGA	0.392
TCAAGGGA	0.0279
ATTACCGC	0.13
GTCACTAA	0.055
CCTGGCAA	-0.168
GGCCTCGA	-0.206
AGCTCCAA	-0.0391
CTCGGAGC	-0.0174
AACCTACT	-0.156
CAAAAAGA	-0.0676
CGTTAGGC	0.181
CTACGACA	0.0518
CCCGCCAG	-0.164
ACCCAGAG	-0.146
CATTTCCG	0.0702
ACCCCACA	-0.171
AAGGGTGC	-0.016

Sequence	PBM E-score
TAGTCTCA	-0.026
CGTGCTAG	-0.209
GAGGCGTA	0.278
AACTATAT	0.14
AGTAGCTG	-0.345
GCGATTAA	0.219
CAGTCCCG	-0.23
CGTGTCAA	0.0772
GAACTAAA	0.172
AGCTTGAA	-0.128
TCAGACCA	-0.188
AAGATTTC	-0.00965
ACCATTTG	0.0694
ATCATCTG	0.028
CAAGTTAC	-0.0183
GGAGCGCA	-0.232
CCTTTCAG	-0.0336
CCTTATGA	0.11
ACTTCTCA	-0.162
GACAGTGC	-0.00443
CGTGAGCA	-0.00304
CAATACCG	-0.127

Sequence	PBM E-score
CGAGGAAG	-0.158
GAAGGATC	-0.204
ACCACGTA	-0.0141
AGTGCGTA	-0.129
CGCGACAC	0.0465
GGACAGAC	-0.062
ATAGGCGG	0.114
GTTTGGAA	0.0964
CGCTTCCA	0.0266
ATTTTACC	0.19
AAATGCGG	0.242
CACCACCA	0.00098
CCTTAACG	0.0269
ACATGCGT	-0.224
CGCTTACC	0.0966
GCCACATA	0.217
ACAATGTG	0.0862
GTTTGAAA	0.153
AAAATGAA	0.0576
CTTTGCGC	0.202
CATTTCGC	0.0364
ATCAAGCG	0.159

Sequence	PBM E-score
GATGTGTA	-0.0694
CCATTGGA	-0.154
CGACGGAC	0.185
CCGACGGC	0.124
CGTGATGC	0.0689
CGGGATGC	-0.122
GTTACTCA	0.191
CTTGCGCA	0.223
AGATCTTA	0.00491
GCGCATTA	0.0169
GTTTGTGA	0.0176
AGACATGG	-0.0378
CGTCATGC	0.117
ATCAATGG	-0.0372
AACTGAGC	-0.0352
CCGATAGG	-0.171
AGACGTGA	-0.0783
GCAACGAA	0.163
ATCTAAAC	0.0888
TTCGCAAA	0.177
